Over roughly 33,000 sequences, “E-score (-0.5 to 0.5)” has its median near -0.054; the highest 2% begin near 0.35. The list shows a part of the results.
target: T1, Stb5 (UniProt P38699); assay: PBM E-score (8-mer binding enrichment) (E-score (-0.5 to 0.5)); higher = stronger / more preferred TF binding; most listed sequences are background and not binding sites; conditions: protein concentration: 200 nM; construct: GST-full length
T1 sequence: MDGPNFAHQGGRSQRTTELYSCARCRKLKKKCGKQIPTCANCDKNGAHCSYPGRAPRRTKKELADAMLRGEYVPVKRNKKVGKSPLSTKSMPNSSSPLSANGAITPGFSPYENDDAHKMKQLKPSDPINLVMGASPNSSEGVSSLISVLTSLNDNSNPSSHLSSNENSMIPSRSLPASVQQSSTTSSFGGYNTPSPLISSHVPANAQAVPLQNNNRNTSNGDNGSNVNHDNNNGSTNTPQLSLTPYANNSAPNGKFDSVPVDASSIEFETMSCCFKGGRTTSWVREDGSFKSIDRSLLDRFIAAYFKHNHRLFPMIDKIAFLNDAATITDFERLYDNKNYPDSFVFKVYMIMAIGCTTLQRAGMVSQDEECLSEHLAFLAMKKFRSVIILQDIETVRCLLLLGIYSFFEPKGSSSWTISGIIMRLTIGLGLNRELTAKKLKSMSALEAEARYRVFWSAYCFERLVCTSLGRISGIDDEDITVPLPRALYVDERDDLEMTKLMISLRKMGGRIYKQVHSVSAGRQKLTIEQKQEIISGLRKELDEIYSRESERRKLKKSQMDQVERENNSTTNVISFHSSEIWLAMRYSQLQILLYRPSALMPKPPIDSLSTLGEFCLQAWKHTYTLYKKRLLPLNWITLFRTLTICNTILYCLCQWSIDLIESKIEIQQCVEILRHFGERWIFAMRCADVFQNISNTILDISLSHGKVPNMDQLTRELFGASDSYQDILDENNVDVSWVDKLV
Procedure: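 Universal 'all 10-mer' protein binding microarrays (Agilent AMADID 015681) probed with GST-tagged S. cerevisiae TFs (full-length or DBD) made by in vitro transcription/translation (PURExpress), about 100-200 nM. Bound TF was detected with fluorescent anti-GST. Each ungapped 8-mer (which stands for itself and its reverse complement) is scored by the PBM enrichment score (E-score), a modified Wilcoxon-Mann-Whitney statistic from -0.5 to +0.5, computed with the Universal PBM Analysis Suite. Scale: above 0.35 generally sequence-specific binding.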

First: AATTAGAC
Second: ATTGGTCA
The “PBM E-score” value of the first is higher: -0.0897 for the first, -0.159 for the second.

Going from AGGAGCGA to ATCCGGCA, the “PBM E-score” value rises from 0.0201 to 0.149.

First: ATGACTAG
Second: ATCATCGA
The “PBM E-score” value of the first is lower: -0.128 for the first, -0.0985 for the second.

First: ATAGAACG
Second: TACGCAAA
The “PBM E-score” value of the first is higher: -0.078 for the first, -0.23 for the second.

First: AGTCGAGA
Second: AAAGGCAG
The “PBM E-score” value of the first is lower: -0.281 for the first, -0.164 for the second.

Going from TAGTGGCA to TCAACGGA, the “PBM E-score” value rises from -0.0544 to 0.147.

Compared with CAACGATC, CGGTACAG is higher in “PBM E-score” value: -0.0986 for the first, 0.098 for the second.

First: CCGATCTC
Second: AGTGAATC
The “PBM E-score” value of the first is higher: 0.262 for the first, -0.107 for the second.

Compared with AAGGACCT, CGGTTAAG is lower in “PBM E-score” value: 0.00048 for the first, -0.0893 for the second.

Going from CACATCCG to GAATCCCC, the “PBM E-score” value rises from 0.0898 to 0.156.

First: GCAAGAGC
Second: CGATGACG
The “PBM E-score” value of the first is lower: -0.0719 for the first, 0.184 for the second.

Going from ACTCAGTC to GCCAGTCA, the “PBM E-score” value rises from -0.319 to -0.18.

First: GCCCTCTA
Second: AGCATAAT
The “PBM E-score” value of the first is lower: -0.0386 for the first, -0.00157 for the second.

Compared with GCAGGGCA, ACGCTCAG is lower in “PBM E-score” value: -0.185 for the first, -0.207 for the second.

First: AAAACATG
Second: CAGTTACA
The “PBM E-score” value of the first is lower: -0.197 for the first, -0.0584 for the second.

Going from AGCTGATC to GCGATTCA, the “PBM E-score” value rises from -0.0518 to 0.00506.

First: CTCTCGAC
Second: CCTACCAG
The “PBM E-score” value of the first is lower: -0.236 for the first, -0.191 for the second.

First: GCATACTA
Second: CCTAGCTA
The “PBM E-score” value of the first is higher: -0.068 for the first, -0.0995 for the second.

Going from CCGGGTCA to CACATTTA, the “PBM E-score” value falls from 0.176 to -0.221.

Going from CAGAAAGA to TGAAATCA, the “PBM E-score” value falls from -0.147 to -0.153.

Compared with CCCATTCA, ACTTGAAA is higher in “PBM E-score” value: -0.175 for the first, -0.0604 for the second.

Compared with ATACAACC, ACCGATGA is higher in “PBM E-score” value: 0.207 for the first, 0.264 for the second.

Compared with CGTTTGGC, ATGGCCGC is higher in “PBM E-score” value: 0.0428 for the first, 0.308 for the second.

Going from AGGTTGTG to CACGTAGA, the “PBM E-score” value falls from -0.231 to -0.271.

Compared with CGACTAAC, GAACCCCA is higher in “PBM E-score” value: 0.00814 for the first, 0.0175 for the second.

Going from AAGAGGCT to ACATCTTC, the “PBM E-score” value rises from -0.157 to 0.09.

Compared with GGTCGGCA, GATCGCGC is lower in “PBM E-score” value: 0.375 for the first, 0.119 for the second.

Compared with TCCCTAGA, CAACCTGA is lower in “PBM E-score” value: -0.0216 for the first, -0.324 for the second.

Compared with CGTTCATA, CACGATAA is higher in “PBM E-score” value: -0.00798 for the first, 0.1 for the second.

Going from CATGCCGC to ACCGTTAA, the “PBM E-score” value falls from 0.312 to 0.29.

First: GAGTTTGA
Second: ACCTGGCC
The “PBM E-score” value of the first is higher: -0.0751 for the first, -0.266 for the second.

First: CATATACG
Second: ACGGAAAC
The “PBM E-score” value of the first is lower: 0.0803 for the first, 0.0965 for the second.

Going from AACAAGGA to CCTGGGCG, the “PBM E-score” value rises from -0.14 to 0.00069.

Compared with GGAGCTCC, ATTTATCG is lower in “PBM E-score” value: 0.234 for the first, 0.00233 for the second.

First: CGAGTGCC
Second: AACTGCGC
The “PBM E-score” value of the first is lower: -0.0896 for the first, 0.211 for the second.

Going from AGGGGAAA to AATTGGCG, the “PBM E-score” value rises from -0.267 to 0.063.

First: CCGTGACG
Second: AAGATTTG
The “PBM E-score” value of the first is higher: 0.19 for the first, -0.112 for the second.

First: CAACGTCC
Second: GATGATGA
The “PBM E-score” value of the first is higher: 0.125 for the first, -0.091 for the second.

Compared with GTAGCCAC, ATTACTCC is higher in “PBM E-score” value: -0.184 for the first, 0.237 for the second.

Compared with AAGATTGT, GAGTAGGA is lower in “PBM E-score” value: 0.0159 for the first, -0.145 for the second.

Going from AAGATATC to CAACTAGA, the “PBM E-score” value rises from -0.0867 to 0.0187.

First: CTATTTGC
Second: CCTCGTTA
The “PBM E-score” value of the first is higher: -0.0716 for the first, -0.341 for the second.

Going from AAATTACA to CGCACTTC, the “PBM E-score” value falls from 0.0977 to 0.0228.

Reference: the supplement of paper PMC3334620
